Laboratory results reported in patent US20150250167A1, “COMPOSITION FOR NOXIOUS ORGANISMS-CONTROLLING AGENT AND METHOD FOR USING THE SAME” (priority 2001, published 2015).
Where two headings read alike, the source gives them in different places.

What was measured:
[1] = system: Rice Water Weevil (Lissorhoptrus oryzophilus); test: Control of rice water weevil on paddyfield rice by nursery box application, extent of injury; format: in vivo; conditions: 0.5 g ai/Box, single agent
[2] = system: Green Peach Aphid (Myzus persicae); test: Insecticidal test on green peach aphid, spraying of Chinese cabbage, control value; format: in vivo; conditions: single agent, 6 days after spraying; for Control degree (%): 100 ppm
[3] = system: Southern Root-Knot Nematode (Meloidogyne incognita); test: Test for the effect on southern root-knot nematode, soil blending with granular preparation; format: in vivo; conditions: 300 g ai/10a, single agent, 60 days after treatment
[4] = system: Rice Leafroller (Cnaphalocrosis medinalis); test: Control of rice leafroller on paddyfield rice by nursery box application, number of injured leaves; format: in vivo; conditions: 0.5 g ai/Box, single agent
[5] = system: Resistant Strain of Two-Spotted Spider Mite; conditions: 100 ppm, single agent, 2 days after spraying
[6] = system: Small Brown Planthopper (Laodelphax striatellus); test: Control of small brown planthopper on paddyfield rice by nursery box application, number of parasitic insects; format: in vivo; conditions: 0.5 g ai/Box, single agent
[7] = system: Smaller Tea Tortrix (Adoxophyes orana fosciota); test: Insecticidal test on smaller tea tortrix, tea leaf dipping; format: in vivo; conditions: 4th instar larvae, 25° C.; for pest or weed control at 0.1 ppm: Adoxophyes orana, foliar, single agent 0.1 ppm; for Death rate (%) After 4 days / Death rate (%) After 7 days: single agent 0.3 ppm
[8] = system: Brown Rice Planthopper (Nilaparvata lugens); test: Insecticidal test on brown rice planthopper, rice seedling dipping; format: in vivo; conditions: 100 ppm, single agent; for Death rate (%) After 1 days: after 1 day
[9] = system: Diamondback Moth (Plutella xyloxtella); test: Control of diamondback moth on cabbage by soil treatment, number of parasitic insects; format: in vivo; conditions: 5 mg ai/hill, 21 days after transplanting
Aphid = test: Control of aphid on cabbage by soil treatment, number of parasitic insects; format: in vivo; conditions: 5 mg ai/hill, 21 days after transplanting

## CSCC(C)(C)NC(=O)c1c(I)cccc1C(=O)Nc1ccc(C(F)(C(F)(F)F)C(F)(F)F)cc1C [Compound 129, N^2-(1,1-dimethyl-2-methylthioethyl)-3-iodo-N^1-{2-methyl-4-[1,2,2,2-tetrafluoro-1-(trifluoromethyl)ethyl]phenyl}-phthalamide]
[1]
  Extent of injury After 21 days: 40.3
[2]; Myzus persicae, 144 h, read-out: Control degree (%)
  pest or weed control at 100 ppm: 5%
[3]
  Number of nematodes per 25 g of soil sample: 45
[4]
  Percentage of injured leaves (%) After 50 days: 0.13%
[5]
  Death rate (%): 5%
[6]
  Number of parasitic planthoppers per 30 hills After 40 days: 323
  Number of parasitic planthoppers per 30 hills After 60 days: 390
[7]; 96 h, read-out: Death rate (%) After 4 days
  pest or weed control at 0.1 ppm: 10%
[7]; 168 h, read-out: Death rate (%) After 7 days
  pest or weed control at 0.1 ppm: 30%
[8]
  Death rate (%) After 1 days: 0%
  Death rate (%) After 5 days: 0%

## Cc1cc(OC(F)F)ccc1NC(=O)c1cccc(I)c1C(=O)NC(C)C [Compound 45]
[1]
  Extent of injury After 21 days: 38.8
[2]
  Control degree (%): 0%
[3]
  Number of nematodes per 25 g of soil sample: 30
[4]
  Percentage of injured leaves (%) After 50 days: 0.13%
[9]; plant foot treatment
  Number of parasitic insects per 30 hills, Diamondback moth: 4
[9]; pre-transplanting treatment
  Number of parasitic insects per 30 hills, Diamondback moth: 1
[9]; pricking-in hole treatment
  Number of parasitic insects per 30 hills, Diamondback moth: 5
[9]; soil incorporation
  Number of parasitic insects per 30 hills, Diamondback moth: 2
[5]
  Death rate (%): 0%
[6]
  Number of parasitic planthoppers per 30 hills After 40 days: 353
  Number of parasitic planthoppers per 30 hills After 60 days: 395
Aphid; plant foot treatment
  Number of parasitic insects per 30 hills, Aphid: 489
Aphid; pre-transplanting treatment
  Number of parasitic insects per 30 hills, Aphid: 472
Aphid; pricking-in hole treatment
  Number of parasitic insects per 30 hills, Aphid: 465
Aphid; soil incorporation
  Number of parasitic insects per 30 hills, Aphid: 472
[7]
  Death rate (%) After 4 days: 0%
  Death rate (%) After 7 days: 25%
[8]
  Death rate (%) After 1 days: 0%
  Death rate (%) After 5 days: 0%

## Cc1cc(OCC(F)(F)C(F)F)ccc1NC(=O)c1cccc(I)c1C(=O)NC(C)C [Compound 46]
[1]
  Extent of injury After 21 days: 42.7
[2]
  Control degree (%): 0%
[3]
  Number of nematodes per 25 g of soil sample: 36
[4]
  Percentage of injured leaves (%) After 50 days: 0.18%
[9]; soil incorporation
  Number of parasitic insects per 30 hills, Diamondback moth: 1
[5]
  Death rate (%): 0%
[6]
  Number of parasitic planthoppers per 30 hills After 40 days: 349
  Number of parasitic planthoppers per 30 hills After 60 days: 387
Aphid; soil incorporation
  Number of parasitic insects per 30 hills, Aphid: 505
[7]
  Death rate (%) After 4 days: 0%
  Death rate (%) After 7 days: 15%
[8]
  Death rate (%) After 1 days: 0%
  Death rate (%) After 5 days: 0%

## Cc1cc(OC(F)(F)F)ccc1NC(=O)c1cccc(F)c1C(=O)NC(C)C [Compound 54]
[1]
  Extent of injury After 21 days: 41.7
[2]
  Control degree (%): 0%
[3]
  Number of nematodes per 25 g of soil sample: 32
[4]
  Percentage of injured leaves (%) After 50 days: 0.25%
[5]
  Death rate (%): 0%
[6]
  Number of parasitic planthoppers per 30 hills After 40 days: 328
  Number of parasitic planthoppers per 30 hills After 60 days: 334
[7]
  Death rate (%) After 4 days: 0%
  Death rate (%) After 7 days: 25%
[8]
  Death rate (%) After 1 days: 0%
  Death rate (%) After 5 days: 0%

## Cc1cc(OC(F)(F)C(F)C(F)(F)F)ccc1NC(=O)c1cccc(I)c1C(=O)NC(C)C (centres unmarked) [Compound 47]
[1]
  Extent of injury After 21 days: 40.9
[2]
  Control degree (%): 0%
[3]
  Number of nematodes per 25 g of soil sample: 27
[4]
  Percentage of injured leaves (%) After 50 days: 0.11%
[5]
  Death rate (%): 0%
[6]
  Number of parasitic planthoppers per 30 hills After 40 days: 328
  Number of parasitic planthoppers per 30 hills After 60 days: 365
[7]
  Death rate (%) After 4 days: 0%
  Death rate (%) After 7 days: 30%
[8]
  Death rate (%) After 1 days: 0%
  Death rate (%) After 5 days: 0%
